Measured values as given in PubChem BioAssay AID485364 (National Center for Advancing Translational Sciences (NCATS), 2010).
Hit rate of the full screen: of about 360,000 compounds, about 11,000 (3.1%) were called active. Inconclusive means that the source gave no clear call. Such entries were picked first, then a sample of the others. Calls follow the shape of the dose curve; as a rule, active = well fitted inhibition curve with a large enough effect; inconclusive = small, poorly fitted or top-dose-only effect; inactive = no such curve, though single readings can be large or run the other way. Potencies of inconclusive entries are left out as doubtful fits.

molecular target: Schistosoma mansoni thioredoxin glutathione reductase (TGR) (UniProt Q962Y6); assay: qHTS Assay for the Inhibitors of Schistosoma Mansoni Peroxiredoxins; conditions: purified TGR, DTNB reduction, TNB absorbance 405 nm; activity change, negative = inhibition: at 114 µM (top of the series) unless noted; also: nearly all actives have a fitted effect of over 60% in size
How it was run: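 Kinetic colorimetric format: TGR-catalysed, NADPH-driven DTNB reduction monitored via TNB absorbance. Enzyme dispensed at 20 nM; compound exposure 15 min at room temperature before reaction start.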
% is scaled to controls: 0 for no effect and ±100 for the full control effect; potency is read from the fitted curve at half-maximal effect; tags tell the direction and shape of the fitted curve.

Row | Compound | Potency | activity change, negative = inhibition
1 | O=C(O)CNC(=S)NCc1ccccc1 | inactive | 
2 | COc1cccc(/C=N/NC(=O)c2[nH]nc3c2CCc2ccccc2-3)c1O | inconclusive [inhibitor, partial curve] | 
3 | O=C(N/N=C/c1ccc([N+](=O)[O-])o1)c1ccccc1-n1cccc1 | inconclusive [inhibitor, partial curve] | 
4 | CC(C)CC(=O)NC(=S)Nc1cccc(NC(=O)c2ccccc2Cl)c1 | inconclusive [inhibitor, partial curve] | 
5 | CCCCCCCCCCCCCCCC[n+]1ccc(/C=N/O)cc1 | inactive | 
6 | COc1ccc(S(=O)(=O)Cc2ccc(C(=O)N3CCN(c4ccccc4)CC3)o2)cc1 | inconclusive [inhibitor, partial curve] | 
7 | Brc1csc(C=Nc2ccc3c(c2)OCCOCCOCCOCCO3)c1 | inactive | 
8 | Cc1cc(C(=O)Cn2ncc(Cl)c(Cl)c2=O)c(C)n1CC(F)(F)F | active: 44.7 µM | 
9 | CC(C)(C)SCCNC(=O)COc1ccc(Cl)cc1 | inactive | 
10 | O=C(CSc1nnc(Cc2cccs2)n1-c1ccccc1)NC1CCCCC1 | inactive | 
11 | O=C(/C=C/c1ccco1)NCCc1ccc(F)cc1 | active: 7.08 µM | 
12 | S=C(NCc1cccnc1)Nc1cccc2ccccc12 | active: 31.6 µM | 
13 | COc1ccccc1OCc1ccc(C(=O)N2CCCCC2)o1 | inconclusive [inhibitor, partial curve] | 
14 | Nc1nc(-c2ccc(Cl)cc2)nnc1-c1ccc(Br)cc1 | inactive | 
15 | Cc1cccn2c(CNCCc3ccccn3)c(C(=O)N3CCOCC3)nc12 | inconclusive [inhibitor, partial curve] | 
16 | Cc1cc(C)c(S(=O)(=O)Nc2cc(-c3cn4ccccc4n3)ccc2C)cc1C | inconclusive [inhibitor, single point] | 
17 | CCOC(=O)C1=C(N)Oc2cc(O)ccc2C1c1cccnc1 (configuration not stated) | inconclusive [inhibitor, partial curve] | 
18 | CN1CCc2ccccc2Cc2[nH]c3ccccc3c2CC1 | inactive | 
19 | Cc1cc(C)n2nc(SC(C)C(=O)NCc3ccco3)nc2n1 (configuration not stated) | inconclusive [inhibitor, partial curve] | 
20 | CCCN1C(=O)/C(=C/c2ccco2)SC1=Nc1ccc(OC)cc1 | active: 50.1 µM | 
21 | O=C(Nc1ccc(Cl)cc1)OCc1cc(-c2ccccc2Cl)on1 | inactive | 
22 | CCOC(=O)c1ccc(N=C2NC(=O)CS2)cc1 | inconclusive [inhibitor, single point] | 
23 | NS(=O)(=O)c1ccc(NC(=S)NCc2ccc(Cl)cc2)cc1 | inconclusive [inhibitor, full curve, poor fit] | 
24 | COCCN(CCOC)S(=O)(=O)c1ccc(NC(=O)c2cnccn2)cc1 | inactive | 

Row | Compound | Potency | activity change, negative = inhibition
25 | CCOC(=O)N1CCN(/C=C(\C#N)c2nc3ccccc3s2)CC1 | inactive | 
26 | CC(=O)NC(c1cccs1)c1cc(Cl)c2ccccc2c1O (configuration not stated) | inconclusive [inhibitor, single point] | 
27 | [Cl][Pt+2][Cl].[NH-]C1CCCCC1[NH-] (configuration not stated) | inconclusive [inhibitor, partial curve, poor fit] | 
28 | CCCCNC(=O)CNC(=S)N(Cc1ccc(C)cc1)Cc1ccco1 | inconclusive [inhibitor, full curve] | 
29 | COc1ccc(CCNC(=O)c2cc(C(=O)c3cc(Cl)ccc3O)cn(CCc3ccc(OC)cc3)c2=O)cc1 | inconclusive [inhibitor, single point] | 
30 | CC(=O)c1ccc(NC(=O)c2ccc(C)c(Br)c2)cc1 | inconclusive [inhibitor, full curve] | 
31 | CCCNC(=O)C1CN(C(=O)c2nn(Cc3ccccc3)c(=O)c3ccccc23)c2ccccc2O1 (configuration not stated) | inactive | 
32 | O=C(Nc1ccc(O)cc1)c1ccc(NC(=O)c2cccs2)cc1 | inactive | 
33 | CCN1CCCC1CNC(=O)C(=O)NC(C)C (configuration not stated) | inactive | 
34 | Cc1cccc(-c2ccc(C=Nc3c(C)n(C)n(-c4ccccc4)c3=O)o2)c1 | inconclusive [inhibitor, partial curve] | 
35 | CSCCC(NC(C)=O)C(=O)Oc1ccc2c3c(c(=O)oc2c1)CCCC3 (configuration not stated) | inconclusive [inhibitor, partial curve] | 
36 | CC(=O)N1c2ccc(C)cc2C(c2ccccc2)CC1C (configuration not stated) | inactive | 
37 | Cn1cc(CCNC(=O)CC2C(=O)NCCN2Cc2cccc(Oc3ccccc3)c2)cn1 (configuration not stated) | inconclusive [inhibitor, partial curve] | 
38 | N#CC1=C(N)N(c2ccccc2)C2=C(C(=O)CCC2)C1c1cccs1 (configuration not stated) | inconclusive [inhibitor, partial curve] | 
39 | C=CCOc1ccc(/C(O)=C2/C(=O)C(=O)N(CCCN3CCOCC3)C2c2ccc(OC)cc2)cc1 (configuration not stated) | inconclusive [inhibitor, partial curve] | 
40 | COc1cccc(-c2nc(CS(=O)(=O)CC(=O)NCCN3CCOCC3)c(C)o2)c1 | inconclusive [inhibitor, full curve, poor fit] | 
41 | COc1ccc(-n2nnnc2SCC(=O)c2cccc(OC)c2)cc1 | inactive | 
42 | CCN(CC)c1ccc(C2Nc3cccc4cccc(c34)N2)c(O)c1 | active: 22.4 µM | 
43 | Cc1ccc(C(=O)c2nocc2C(=O)c2cccs2)cc1 |  | inconclusive: -38.2% [inhibitor]
44 | CCc1nnc(NS(=O)(=O)c2ccc(NC(=S)NC(=O)/C=C/c3ccccc3)cc2)s1 | inconclusive [inhibitor, partial curve] | 
45 | CCCCn1c(O)c(C(CC)=Nc2cccc(C(=O)O)c2)c(=O)[nH]c1=O | inconclusive [inhibitor, partial curve] | 
46 | CCN(CC(=O)Nc1c(F)cccc1F)C(=O)CC1CCCC1 | inconclusive [inhibitor, single point] | 
47 | COC(=O)[C@@]12OC[C@]34[C@H]([C@@H](O)[C@@H]1O)[C@@]1(C)C(=O)C(O[C@@H]5OC(CO)[C@@H](O)[C@@H](O)[C@@H]5O)=C[C@@H](C)[C@@H]1C[C@H]3OC(=O)[C@H](OC(=O)/C=C(\C)C(C)(C)OC(C)=O)[C@@H]24 (some centres not stated) | inconclusive [inhibitor, partial curve] | 
